# About 14,000 (4.5%) of roughly 310,000 compounds showed an effect of 50% or more. The effect is printed as a negative number. The list shows a part of the results.
# Biological target: human ether-à-go-go-related gene (hERG) potassium channel (human, UniProt Q12809)
# Test: primary screen, population patch clamp on CHO cells stably expressing hERG
# 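Also: peak tail current of the secondary pulse compared with the same well before compound.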
# Sequence of human ether-à-go-go-related gene (hERG) potassium channel (Q12809 whole entry, looked up): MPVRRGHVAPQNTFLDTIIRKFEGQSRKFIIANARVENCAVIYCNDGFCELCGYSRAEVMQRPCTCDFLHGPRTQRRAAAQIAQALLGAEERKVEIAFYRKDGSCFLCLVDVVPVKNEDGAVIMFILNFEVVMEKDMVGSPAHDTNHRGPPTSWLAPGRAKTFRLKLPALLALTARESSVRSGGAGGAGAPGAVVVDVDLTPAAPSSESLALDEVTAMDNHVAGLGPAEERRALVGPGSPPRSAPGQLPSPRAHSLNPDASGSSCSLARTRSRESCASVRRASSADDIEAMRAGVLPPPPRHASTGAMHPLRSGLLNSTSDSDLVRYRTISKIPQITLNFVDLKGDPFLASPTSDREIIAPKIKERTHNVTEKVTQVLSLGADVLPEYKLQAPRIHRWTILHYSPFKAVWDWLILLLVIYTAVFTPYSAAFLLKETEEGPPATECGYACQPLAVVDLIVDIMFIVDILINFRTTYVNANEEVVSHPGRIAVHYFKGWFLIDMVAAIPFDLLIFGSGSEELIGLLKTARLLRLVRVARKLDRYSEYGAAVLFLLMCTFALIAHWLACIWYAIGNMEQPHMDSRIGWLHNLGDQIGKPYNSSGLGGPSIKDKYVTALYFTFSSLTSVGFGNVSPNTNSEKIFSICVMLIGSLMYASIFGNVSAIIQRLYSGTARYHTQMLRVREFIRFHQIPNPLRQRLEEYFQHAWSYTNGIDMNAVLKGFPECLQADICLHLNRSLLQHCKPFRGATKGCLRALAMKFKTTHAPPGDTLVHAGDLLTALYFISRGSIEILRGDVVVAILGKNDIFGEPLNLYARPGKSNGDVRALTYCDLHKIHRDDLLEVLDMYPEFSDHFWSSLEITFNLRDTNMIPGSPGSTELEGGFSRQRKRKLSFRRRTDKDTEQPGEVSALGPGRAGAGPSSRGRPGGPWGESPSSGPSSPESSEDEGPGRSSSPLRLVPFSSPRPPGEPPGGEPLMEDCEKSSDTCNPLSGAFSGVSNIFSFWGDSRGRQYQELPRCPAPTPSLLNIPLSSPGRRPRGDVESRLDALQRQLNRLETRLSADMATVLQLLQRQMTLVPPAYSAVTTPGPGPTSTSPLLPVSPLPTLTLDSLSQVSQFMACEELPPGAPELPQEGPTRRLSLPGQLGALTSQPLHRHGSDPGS
row,Compound,"hERG current change (%, negative = inhibition) at 10uM"
1,CC(NC(=O)Cn1cc(C(F)(F)F)ccc1=O)c1ccc(F)cc1 (centres unmarked),13.3%
2,Cc1cccc(OCC(=O)NCc2cc(C)nc3ccccc23)c1,-9.05%
3,Nc1nc2n(n1)C(=O)CC(c1ccccc1)N2 (centres unmarked),22.9%
4,O=[N+]([O-])c1ccccc1/C=C/C=N/N1CCCCC1,11.7%
5,CCC(=O)Oc1ccc2c(C)cc(=O)oc2c1C(=O)c1ccccc1,3.76%
6,Cc1ccccc1NC(=O)Nc1cc(S(N)(=O)=O)ccc1C,8.03%
7,CCOc1cc(CO)cc(Br)c1OCC(=O)O,-6.91%
8,Cn1nc(C(C)(C)C)c([N+](=O)[O-])c1C(=O)NC(C)(C)C,8.48%
9,O=C(Nc1c(Cl)cc(Cl)cc1C(=O)NCc1cccnc1)c1ccc(Cl)cc1Cl,-4.95%
10,O=C(NC(NC(=O)c1c(F)cccc1F)c1ccc([N+](=O)[O-])cc1)c1c(F)cccc1F,-43.8%
11,C=CCSc1nnc(-c2sc(-c3ccccc3)nc2C)n1C,-33.6%
12,CC(=O)Nc1ccc(CN2CCCC(C(=O)c3cccc(C(F)(F)F)c3)C2)cc1 (centres unmarked),-20.7%
13,COc1ccc(OC)c(NC(=O)C2CCCN2C(=O)C2CCC(C)CC2)c1 (centres unmarked),-2.29%
14,CCCCCCCCCS(=O)(=O)Nc1cc(C)ccn1,2.47%
15,COC(=O)CCSCC(=O)N1N=C(c2ccc(OC)cc2)CC1c1cccc(OC)c1OC (centres unmarked),9.13%
16,Cc1ccc(S(=O)(=O)N2CCCC2CNC(=O)C(=O)NCCN2CCOCC2)cc1 (centres unmarked),16.5%
17,CC(C)OP(C)(=O)CN1CCN(CP(C)(=O)OC(C)C)CC1 (centres unmarked),10.8%
18,C/C(=N\NC(=O)c1ccco1)c1cc2ccccc2o1,-9.09%
19,CCOC(=O)/C=c1\s/c(=C\c2ccc(C(F)(F)F)cc2)c(=O)n1CC(=O)NCc1ccco1,5.47%

row,Compound,"hERG current change (%, negative = inhibition) at 10uM"
1,O=C(Nc1ccc(C(=O)N2CCCC2)cc1)Nc1ccc(Cl)cc1Cl,13.2%
2,O=C(CSc1nncs1)NC1CCCCCCC1,0.331%
3,O=[N+]([O-])c1ccc(/C([O-])=C(/C(=S)NCc2ccco2)[n+]2ccccc2)cc1,-30.9%
4,Cl.Clc1ccc(OCCOCCN2CCc3ccccc3C2)c(Cl)c1,-69.8%
5,COC(=O)c1ccc(N(C(=O)CNC(=O)c2ccco2)C(C(=O)NC2CCCC2)c2ccco2)cc1 (centres unmarked),2.49%
6,Cc1ccccc1C(=O)N1CCC(C(=O)Oc2ccc(C#N)cc2)CC1,-24.8%
7,Cc1ccc(-n2nc(C(=O)N/N=C/c3cccc(C(F)(F)F)c3)c3ccccc3c2=O)cc1C,10.8%
8,Fc1ccc(Cn2nnnc2C(c2cccs2)N2CCCCCC2)cc1 (centres unmarked),-11.2%
9,O=S(=O)(Nc1ccc2nc(N3CCOCC3)sc2c1)c1ccc(Cl)cc1,-29.4%
10,COc1cc(OC)nc(NC(=S)NC(=O)c2ccccc2)n1,23.1%
11,Cc1cccc(C)c1NC(=O)CCS(=O)(=O)c1cccc2nonc12,15.7%
12,CC(=O)N(C)c1ccc(NC(=O)COc2ccc(Br)cc2C)cc1,-29.6%
13,CC(=O)Nc1c(Cl)n(C(C)=O)c2ccccc12,6.5%
14,Cc1nc(NC(=O)/C=C/c2ccccc2)sc1C(=O)N(C)C,-6.44%
15,Cc1nc2cc(CO)ccc2n1C,-8.19%
16,[O-][n+]1onc2c1CCc1nnc(-c3ccccc3)cc1-2,7.6%
17,CC1=C(C(=O)Nc2cc(C)ccn2)C(c2cnn(C)c2)C2=C(CC(c3ccccc3)CC2=O)N1 (centres unmarked),-22.3%
18,O=C(CCCCCn1c(=S)[nH]c2ccc(N3CCOCC3)cc2c1=O)NCc1ccccc1Cl,4.65%
19,CCc1c(C)nc(SCC(=O)Nc2cccc(Br)c2)[nH]c1=O,16.3%

row,Compound,"hERG current change (%, negative = inhibition) at 10uM"
1,O=C(Nc1ccccc1)c1ccc2nc(-c3ccco3)c(-c3ccco3)nc2c1,4.03%
2,O=C(CSc1nc2ccccc2c(=O)n1CCCO)NCc1ccccc1,-41.5%
3,Oc1ccccc1-c1nnc(-c2ccc(C(F)(F)F)cc2)o1,14.5%
4,O=C(N/N=C/c1cc2c(cc1Cl)OCO2)c1cccc(Br)c1,-2.95%
5,Cc1nnc(-c2ccc(Oc3ccc(Br)cc3)c([N+](=O)[O-])c2)o1,3.38%
6,Cc1cc(C)cc(OCCCn2ccnc2)c1,13.3%
7,CCOc1ccc2[nH]c3c(NCC(C)C)ncnc3c2c1,-8.65%
8,CCOC(=O)c1[nH]c2ccccc2c1NC(=S)Nc1ccccc1C,5.67%
9,Cc1ccc(OCC(O)CNC(C)c2ccccc2)cc1C.Cl (centres unmarked),-20.7%
10,CC1(C)Cc2c(sc3nnn(Cc4ccc(Cl)cc4)c(=O)c23)CO1,15.4%
11,CC(C)c1cccc(C(C)C)c1OCCn1ccnc1,-16%
12,CN(C)CCCn1c(=O)n(Cc2ccco2)c(=O)c2c3c(sc21)CCCCC3,-71.1%
13,CCOc1nnc(C)c2c(C)n(-c3ccc(Cl)cc3)nc12,-10.1%
14,O=C(c1ccc(F)c(S(=O)(=O)N2CCOCC2)c1)N(c1ccccc1)c1ccccn1,1.35%
15,Cc1ccc(-c2nn(C(C)(C)C)c3ncnc(NS(=O)(=O)c4ccc([N+](=O)[O-])cc4)c23)cc1,-37.1%
16,COc1ccccc1-n1nnnc1SC(C)C(=O)NC1CCCC1 (centres unmarked),6.08%
17,CCOc1ccc2nc(SCC(=O)Nc3ccc(S(=O)(=O)N4CCCC4)cc3)c(C)cc2c1,2.2%
18,CC1(C)Cc2ccccc2-c2nc(-c3ccccc3)oc(=O)c21,2.64%
